Test results as given in the supplement of paper PMC4604168 (melanoma cell lines).
Some of the results follow. Single values are uncertain, as repeats are few or missing.

Assays:
Assay in all cases: cell count relative to DMSO control; melanoma cells; higher = more viable cells
Settings in all cases: library dose: standard library concentration; 72 h
SkMel28 = system: SkMel28
SkMel2 = system: SkMel2
SkMel30 = system: SkMel30
SkMel5 = system: SkMel5
UACC257 = system: UACC257
UACC62 = system: UACC62
WM115 = system: WM115
WM1716 = system: WM1716
WM3526 = system: WM3526
WM1745 = system: WM1745
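Also: cells treated in 1,536-well plates, then fixed and DAPI-stained, with nuclei counted from automated high-throughput microscope images.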

SMILES | cell count (SkMel28) [%] | cell count (SkMel2) [%] | cell count (SkMel30) [%] | cell count (SkMel5) [%] | cell count (UACC257) [%] | cell count (UACC62) [%] | cell count (WM115) [%] | cell count (WM1716) [%] | cell count (WM3526) [%] | cell count (WM1745) [%]
C[C@]12O[C@H](C[C@]1(O)CO)n1c3ccccc3c3c4c(c5c6ccccc6n2c5c31)CNC4=O [Lestaurtinib] + COC(=O)c1sccc1S(=O)(=O)Nc1ccc(Nc2ccccc2)cc1OC [GSK0660] (first compound 0.02 µM, partner dose 5 µM) | 83.7 | 103 | 60.6 | 61.3 | 95.2 | 77.5 | 100 | 90 | 62.6 | 
Cn1cc(C2=C(c3cn(C4CCN(Cc5ccccn5)CC4)c4ccccc34)C(=O)NC2=O)c2ccccc21 [Enzastaurin] + COc1cc(N2CCC(N3CCN(C)CC3)CC2)ccc1Nc1ncc(Cl)c(Nc2ccccc2S(=O)(=O)C(C)C)n1 [NVP-TAE684] (first compound 4 µM, partner dose 0.4 µM) | 90.2 | 69.6 | 104 | 73.6 | 84.3 | 48.4 | 89.3 | 72.3 | 68.6 | 
N.N.[Cl][Pt][Cl] [cisplatin] + O=C(Oc1ccc([N+](=O)[O-])cc1)N1CCC(C(O)(c2ccc3c(c2)OCO3)c2ccc3c(c2)OCO3)CC1 [JZL184] (first compound 8 µM, partner dose 5 µM) | 95.1 |  | 101 | 98.8 | 93.7 | 51.2 | 85.8 | 80 | 98 | 
Cn1cc(C2=C(c3cn(C4CCN(Cc5ccccn5)CC4)c4ccccc34)C(=O)NC2=O)c2ccccc21 [Enzastaurin] + Cc1cc([N+](=O)[O-])ccc1NS(=O)(=O)c1cc(Cl)ccc1Cl [FH535] (first compound 4 µM, partner dose 5 µM) | 61.9 |  | 99.3 | 57.2 | 70.3 | 92.5 | 92.6 | 76.8 | 88.2 | 
Cn1cc(C2=C(c3cn(C4CCN(Cc5ccccn5)CC4)c4ccccc34)C(=O)NC2=O)c2ccccc21 [Enzastaurin] + CC(C)(C)c1cnc(CSc2cnc(NC(=O)C3CCNCC3)s2)o1 [SNS-032] (first compound 4 µM, partner dose 0.05 µM) | 66.6 |  | 75 | 55 | 81.7 | 50.3 | 53.8 | 48.2 | 74 | 41.9
Cn1cc(C2=C(c3cn(C4CCN(Cc5ccccn5)CC4)c4ccccc34)C(=O)NC2=O)c2ccccc21 [Enzastaurin] + COc1ccc2c(c1)CCC1C2CCC2(C)C(NCCCCCCN3C(=O)C=CC3=O)CCC12 [U73122] (first compound 4 µM, partner dose 2 µM) | 87.3 | 97.8 | 112 | 91.6 | 85.2 | 65.3 | 97 | 61 | 90.9 | 
N.N.[Cl][Pt][Cl] [cisplatin] + Cc1cc([N+](=O)[O-])ccc1NS(=O)(=O)c1cc(Cl)ccc1Cl [FH535] (first compound 8 µM, partner dose 5 µM) | 61.3 | 82.1 | 91.1 | 68.1 | 32.3 | 98.5 | 97.3 | 72.6 | 73.2 | 
C[C@]12O[C@H](C[C@]1(O)CO)n1c3ccccc3c3c4c(c5c6ccccc6n2c5c31)CNC4=O [Lestaurtinib] + CCc1ccc(CCOc2ccc(CC3SC(=O)NC3=O)cc2)nc1 [pioglitazone] (first compound 0.02 µM, partner dose 10 µM) | 46.4 | 91.5 | 78.8 | 52.5 | 82.9 | 78.3 | 73.4 | 82.1 | 72.3 | 
Cn1cc(C2=C(c3cn(C4CCN(Cc5ccccn5)CC4)c4ccccc34)C(=O)NC2=O)c2ccccc21 [Enzastaurin] + O=S(=O)(c1ccccc1)N(CC(F)(F)F)c1ccc(C(O)(C(F)(F)F)C(F)(F)F)cc1 [T0901317] (first compound 4 µM, partner dose 7 µM) | 67.2 | 56.4 | 94.6 | 72.8 | 65.5 | 57.8 | 109 | 74.8 | 90 | 
N.N.[Cl][Pt][Cl] [cisplatin] + COc1ccc(-c2ccc3c(N4CCOCC4)nc(N4C[C@@H](C)O[C@@H](C)C4)nc3n2)cc1CO [KU0063794] (first compound 8 µM, partner dose 0.1 µM) | 69.9 | 74.7 | 84.1 | 66 | 80.6 | 68.3 | 74.9 | 80.3 | 73.5 | 
C[As](C)SC[C@H](NC(=O)CC[C@H](N)C(=O)O)C(=O)NCC(=O)O [Darinaparsin] + C/C(O)=C(\C#N)C(=O)Nc1cc(Br)ccc1Br [LFM-A13] (first compound 2 µM, partner dose 10 µM) | 68.1 |  | 77.4 | 64.3 | 78.1 | 86.1 | 77.3 | 66.8 | 76.5 | 84.3
N.N.[Cl][Pt][Cl] [cisplatin] + Cn1cc(/C=C2\C(=O)Nc3cccnc32)c2ccccc21 [GW441756] (first compound 8 µM, partner dose 2 µM) | 48.5 | 98.8 | 89.4 | 78.3 | 70 | 55.9 | 100 | 105 | 89.4 | 
Cn1cc(C2=C(c3cn(C4CCN(Cc5ccccn5)CC4)c4ccccc34)C(=O)NC2=O)c2ccccc21 [Enzastaurin] + Oc1cc(-c2nc(-c3ccccc3)[nH]c2-c2ccncc2)ccc1Cl [L779450] (first compound 4 µM, partner dose 1 µM) | 74.5 | 60.7 | 91 | 84.6 | 121 | 56.7 | 60 | 64.6 | 72.3 | 
Cn1cc(C2=C(c3cn(C4CCN(Cc5ccccn5)CC4)c4ccccc34)C(=O)NC2=O)c2ccccc21 [Enzastaurin] + c1cc(-c2cnn3cc(-c4ccc(OCCN5CCCCC5)cc4)cnc23)ccn1 [Dorsomorphin] (first compound 4 µM, partner dose 2 µM) | 69.4 | 52.4 | 88.8 | 50.7 | 81.5 | 50.7 | 90.8 | 66.5 | 77.6 | 
N.N.[Cl][Pt][Cl] [cisplatin] + O=C(Nc1ccccc1)c1cc([N+](=O)[O-])ccc1Cl [GW9662] (first compound 8 µM, partner dose 10 µM) | 53.5 | 79.2 | 87.1 | 80.8 | 62.8 | 82.8 | 83.5 | 97.6 | 84.5 | 
N.N.[Cl][Pt][Cl] [cisplatin] + COc1ccc2c(c1)CCC1C2CCC2(C)C(NCCCCCCN3C(=O)C=CC3=O)CCC12 [U73122] (first compound 8 µM, partner dose 2 µM) | 50.3 | 77.5 | 75.7 | 56.5 | 83 | 51.6 | 70.6 | 73.4 | 72.1 | 
Cn1cc(C2=C(c3cn(C4CCN(Cc5ccccn5)CC4)c4ccccc34)C(=O)NC2=O)c2ccccc21 [Enzastaurin] + C/C(O)=C(\C#N)C(=O)Nc1cc(Br)ccc1Br [LFM-A13] (first compound 4 µM, partner dose 10 µM) | 113 | 72 | 88.4 | 81.5 | 105 | 65 | 90.7 | 54.5 | 82.7 | 
C[C@]12O[C@H](C[C@]1(O)CO)n1c3ccccc3c3c4c(c5c6ccccc6n2c5c31)CNC4=O [Lestaurtinib] + COc1ccc2c(c1)CCC1C2CCC2(C)C(NCCCCCCN3C(=O)C=CC3=O)CCC12 [U73122] (first compound 0.02 µM, partner dose 2 µM) | 67.3 | 92.9 | 74.5 | 55.5 | 89 | 63.5 | 73 | 78 | 70.4 | 
N.N.[Cl][Pt][Cl] [cisplatin] + CCN(CC)CCCCNc1ncc2cc(-c3cc(OC)cc(OC)c3)c(NC(=O)NC(C)(C)C)nc2n1 [PD173074] (first compound 8 µM, partner dose 0.5 µM) | 58.5 |  | 93.7 | 87.6 | 82.7 | 104 | 89.7 | 83.1 | 88.3 | 
N.N.[Cl][Pt][Cl] [cisplatin] + COc1cc(N2CCC(N3CCN(C)CC3)CC2)ccc1Nc1ncc(Cl)c(Nc2ccccc2S(=O)(=O)C(C)C)n1 [NVP-TAE684] (first compound 8 µM, partner dose 0.4 µM) | 79.4 | 86.7 | 102 | 67.3 | 73 | 78.1 | 73.3 | 83.1 | 81.8 | 
Cn1cc(C2=C(c3cn(C4CCN(Cc5ccccn5)CC4)c4ccccc34)C(=O)NC2=O)c2ccccc21 [Enzastaurin] + Cn1cc(/C=C2\C(=O)Nc3cccnc32)c2ccccc21 [GW441756] (first compound 4 µM, partner dose 2 µM) | 80.4 | 64.6 | 76.3 | 57 | 91.1 | 82 | 94.7 | 81.5 | 76.7 | 
N.N.[Cl][Pt][Cl] [cisplatin] + C=CCn1c(=O)c2cnc(Nc3ccc(N4CCN(C)CC4)cc3)nc2n1-c1cccc(C(C)(C)O)n1 [MK1775] (first compound 8 µM, partner dose 0.1 µM) | 49.3 |  | 76.8 | 41.9 | 64.4 | 57.5 | 47.3 | 71.6 | 76.2 | 51.4
